Laboratory results reported in publication PMC4336329 (PLoS ONE, 2015).
In all, about 310,000 compounds went through this assay and about 2,200 (0.71%) showed an effect of 50% or more. The effect is printed as a negative number. This is one part of the list.

biological target: human ether-à-go-go-related gene (hERG) potassium channel (human, UniProt Q12809); assay: primary screen, population patch clamp on CHO cells stably expressing hERG
Sequence (Q12809 whole entry, looked up): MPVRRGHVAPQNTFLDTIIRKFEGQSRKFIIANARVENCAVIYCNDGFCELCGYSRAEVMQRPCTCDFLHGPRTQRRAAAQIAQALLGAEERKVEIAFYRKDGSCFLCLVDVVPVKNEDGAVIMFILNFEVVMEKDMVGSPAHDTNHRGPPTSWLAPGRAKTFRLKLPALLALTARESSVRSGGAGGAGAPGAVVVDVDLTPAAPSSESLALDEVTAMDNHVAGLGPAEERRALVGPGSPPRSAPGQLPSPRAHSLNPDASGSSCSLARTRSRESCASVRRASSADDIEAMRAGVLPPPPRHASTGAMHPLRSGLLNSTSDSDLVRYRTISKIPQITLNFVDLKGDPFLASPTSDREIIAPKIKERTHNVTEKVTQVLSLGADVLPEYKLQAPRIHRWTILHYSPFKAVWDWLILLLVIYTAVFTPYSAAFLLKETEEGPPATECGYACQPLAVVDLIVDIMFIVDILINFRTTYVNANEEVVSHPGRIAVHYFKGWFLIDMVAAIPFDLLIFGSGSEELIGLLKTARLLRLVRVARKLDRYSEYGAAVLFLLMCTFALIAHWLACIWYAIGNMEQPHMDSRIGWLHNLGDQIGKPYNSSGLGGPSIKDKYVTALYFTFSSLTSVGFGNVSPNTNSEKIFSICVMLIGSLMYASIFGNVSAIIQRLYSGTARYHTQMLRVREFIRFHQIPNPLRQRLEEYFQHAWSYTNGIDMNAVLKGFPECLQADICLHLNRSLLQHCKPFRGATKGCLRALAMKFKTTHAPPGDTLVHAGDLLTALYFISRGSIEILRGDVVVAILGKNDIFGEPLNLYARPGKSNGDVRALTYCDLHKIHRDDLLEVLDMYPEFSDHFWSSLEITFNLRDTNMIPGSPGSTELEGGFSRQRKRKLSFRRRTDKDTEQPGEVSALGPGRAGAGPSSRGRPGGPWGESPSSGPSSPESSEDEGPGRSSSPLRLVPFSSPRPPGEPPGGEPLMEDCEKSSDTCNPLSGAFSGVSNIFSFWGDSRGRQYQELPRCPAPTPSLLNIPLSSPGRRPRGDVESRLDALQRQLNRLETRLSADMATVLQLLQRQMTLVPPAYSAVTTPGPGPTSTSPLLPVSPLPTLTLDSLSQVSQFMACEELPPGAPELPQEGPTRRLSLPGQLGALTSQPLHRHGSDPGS

Row | SMILES | hERG current change (%, negative = inhibition) at 1uM [%]
1 | CCOCCCn1c(=NC(=O)c2ccc(OC)c(OC)c2)c(C#N)cc2c(=O)n3cccc(C)c3nc21 | -11
2 | O=C(NC1CC1)c1ccc(-c2ccccc2)cc1 | 4.86
3 | CC1CC(C)CN(S(=O)(=O)c2ccc(NC(=O)CN3C(=O)NC(C)(c4ccccc4)C3=O)cc2)C1 (stereo not drawn) | 10.9
4 | COc1ccc(N2CC(NC(=O)N3CCN(c4ccccc4)CC3)CC2=O)cc1 (stereo not drawn) | 5.4
5 | CCOC(=O)c1c(NC(=O)C2CCCO2)sc2c1CCC2 (stereo not drawn) | 7.12
6 | O=C(O)c1ccccc1-c1ccccc1C(=O)NCc1ccccc1Cl | -18
7 | COc1cc(NC(=O)CSc2nc(C)cs2)cc(OC)c1 | 8.25
8 | COc1ccc(-c2cc(=O)c3c(OC)c(OC)c(OC)c(OC)c3o2)cc1OC | 5.03
9 | COc1ccc(S(=O)(=O)Nc2cc(Cl)ccc2-n2cncn2)cc1 | 4.87
10 | CC(=O)c1ccc(NC(=O)C(C)N(C)CC(=O)Nc2ccccc2Cl)cc1 (stereo not drawn) | 14.4
11 | CCOC(=O)CN1C(=O)N[C@@H](c2cccc(C(F)(F)F)c2)[C@@H](C(=O)OC)[C@H]1C | 12.7
12 | O=C(NNC(=O)c1cccnc1)Nc1ccc(Cl)c(Cl)c1 | 8.22
13 | COc1ccc(S(=O)(=O)Nc2ccc(NC(C)=O)cc2)cc1 | 5.1
14 | Cc1nn(-c2ccccc2)c(N2CCCC2)c1/C=N/NC(=O)c1cccc(S(=O)(=O)Nc2ccc(Cl)cc2)c1 | 7.06
15 | O=C(NCCc1csc(-c2ccccc2)n1)c1ccco1 | -6.56
16 | N#Cc1ccccc1Cn1c(=O)n(-c2ccc(CC(=O)NCc3ccco3)cc2)c(=O)c2sccc21 | 11.5
17 | CCC(CC)NC(=O)COn1nnc2ccc(S(=O)(=O)N3CCOCC3)cc21 | 3.22
18 | O=C(CSc1nc2ccccc2c(=O)n1Cc1ccco1)N1CCCCCC1 | -82.8
19 | CSc1nc(-c2ccc(Cl)cc2)nn1S(=O)(=O)c1ccc(Cl)cc1 | 6.6
20 | Cn1c(N)c(C#N)c2c(c1=S)CSC(C)(C)C2 | 8.04
21 | N#CCCn1cc(C(=O)NCc2ccccc2)c(-c2ccccc2)n1 | 11.3
22 | Cc1ccc(Cn2nc(C)c(NC(=O)CSc3nc4c(c(C(F)(F)F)n3)CCc3ccccc3-4)c2C)cc1 | 18.5
23 | COCCn1c(SCC(=O)N2CCC(C)CC2)nc2c([nH]c3ccccc32)c1=O | -0.593
24 | O=[N+]([O-])c1cc(-c2nnc(-c3ccccc3)o2)ccc1Oc1ccc(Cl)cc1 | 3.19
25 | COc1ccc(NC(=O)CCN2CCN(S(=O)(=O)c3ccc(OC)cc3)CC2)cc1 | -5.88
26 | Cn1c(=O)c2nc(-c3ccc(Cl)cc3Cl)oc2c2ccccc21 | 18.6
27 | Cc1cccc(C(=O)O/N=C2\CCCc3ccccc32)c1 | 10.1

Row | SMILES | hERG current change (%, negative = inhibition) at 1uM [%]
28 | Cc1cccc(-n2c(-c3ccoc3C)n[nH]c2=S)c1 | 10.6
29 | CCOC(=O)N1CCN(c2c(N3CCN(c4cc(C)ccc4C)CC3)c(=O)c2=O)CC1 | 9.9
30 | CCOc1ccc2nc(SCC(=O)NCc3ccc(OC)c(OC)c3)[nH]c2c1 | 6.33
31 | COc1cccc(C(=O)NCCS(=O)(=O)N(C)C2CCCCC2)c1 | 1.27
32 | O=c1c2ccccc2nc(/C=C/c2ccccc2)n1-c1ccccc1O | 16.2
33 | Cc1ccc(SCCNC(=O)c2ccc([N+](=O)[O-])c(C)c2)cc1 | 13
34 | O=C(CN1C(=O)CCSc2ccccc21)Nc1ccccc1 | -15.6
35 | COC(=O)c1[nH]c2cccc(OC)c2c1NC(=O)CN1CC(C)OC(C)C1 (stereo not drawn) | 8.31
36 | COc1ccc(NS(=O)(=O)c2ccc(C(=O)OC(C)C(=O)N3CCOCC3)cc2)cc1 (stereo not drawn) | -31.7
37 | CC1CN(c2nc(N(C)c3ccccc3)nc(N)c2[N+](=O)[O-])CC(C)O1 (stereo not drawn) | 10.7
38 | Cc1ccc(C)c(CS(=O)(=O)c2cn(CC(=O)N3CCC(C)CC3)c3ccccc23)c1 | -1.46
39 | O=c1[nH]c(CSc2cccc[n+]2[O-])nc2ccccc12 | 2.76
40 | COc1cc(OC)cc(-c2nc3ccccc3s2)c1 | -7.24
41 | CCNc1nc(SCCOc2ccc(Br)cc2)nc(N(C)C)n1 | 10.2
42 | Cn1c(O)c(N=Nc2ccccc2[N+](=O)[O-])c2ccccc21 | 12.9
43 | Cc1cc(Cl)nc(-c2ccccc2)n1 | 12.2
44 | O=c1c2cc(-c3ccccc3)sc2nc2n1N=C(c1ccccc1)CS2 | 20.5
45 | CCCCc1nnc(NC(=O)c2oc3ccc(OC)cc3c2C)s1 | 3.44
46 | COc1ccccc1C1=CC(=O)C[C@H](c2ccc(F)cc2)C1 | 7.06
47 | CCOC(=O)c1oc2ccccc2c1NC(=O)COc1cccc(OC)c1 | 14.2
48 | CC(Oc1ccc2c(c1)oc(=O)c1ccccc12)C(=O)NCCCN1CCOCC1 (stereo not drawn) | 5.72
49 | CCOC(=O)N1CCN(C2=CC(=O)OC23CCCCC3)CC1 | 6.32
50 | COc1ccc(CN(C)CC(=O)Nc2ccc(SC(F)F)cc2)cc1OC | -49.3
51 | COC(=O)C1=C(C)N(CCCC(=O)O)C(=O)NC1c1cc2c(cc1[N+](=O)[O-])OCO2 (stereo not drawn) | 13.5
52 | Cc1ccc(-c2nc3c(=O)n(-c4ccccc4)c4c(c(=O)n(C)c(=O)n4C)c3o2)cc1 | 12.1
53 | COc1ccc(CC(=O)N/N=C/c2ccc(-c3cccc(C(=O)O)c3)o2)cc1OC | 1.51
54 | CCOc1ccc(CCNC(=O)CCCN2C(=O)c3ccccc3C2=O)cc1OCC | 9.71
